Results: PubChem BioAssay AID624296 (National Center for Advancing Translational Sciences (NCATS), 2012)
The whole screen tested about 350,000 compounds, of which about 9,900 (2.8%) were called active. The inconclusive results got no clear call from the source; some entries with a clear call stand among them for comparison. The call rests on the fitted dose curve; in most records, active means well fitted activation curve with a large enough effect; inconclusive means small, poorly fitted or top-dose-only effect; inactive means no such curve, though single readings can be large or run the other way. Potencies of inconclusive entries are left out as doubtful fits.

Experiment: A quantitative high throughput screen for small molecules that induce DNA re-replication in MCF 10a normal breast cells. Further: nearly all actives have a fitted effect of over 50% in size. On activity, positive = re-replication: % of control where 0% means no effect.
Details: MCF 10A DNA re-replication, Hoechst nuclear intensity, 48 h; activity, positive = re-replication: at 46.1 µM (top of the series)
Potency means the concentration at half of the fitted maximal effect; tags describe the fitted curve by direction and shape.

Row | Compound | Potency | activity, positive = re-replication
1 | CC1(C)Cc2c(C#N)c(OCC(=O)c3ccccc3)nc(-c3ccoc3)c2CO1 | inconclusive [activator, partial curve, poor fit] | 
2 | O=Nc1c(O)n(Cc2cccc(Cl)c2)c2ccccc12 | inconclusive [activator, single point] | 
3 | CCCCNC(=O)c1ccc(/C=C2\Oc3ccccc3N(C)C2=O)cc1 | inconclusive [activator, single point] | 
4 | CCOc1cc(S(=O)(=O)Nc2ccc(Cl)cn2)ccc1Cl | inconclusive [activator, full curve, poor fit] | 
5 | Cc1ccc(C(C)C)c(OCCN)c1 | inconclusive [activator, single point] | 
6 | CC1CCC(C(C)C)C(OC(=O)Cn2c(-c3ccc(Cl)cc3)[n+](C)c3ccccc32)C1 (stereo not given) | inconclusive [activator, full curve, poor fit] | 
7 | COc1ccc(OCc2cc(C(=O)N(Cc3nccn3C)C(C)C)no2)c2ccccc12 | inconclusive [activator, single point] | 
8 | N#Cc1cccc(NC(=O)COC(=O)CCc2ccc(S(=O)(=O)N3CCOCC3)cc2)c1 | inconclusive [activator, single point] | 
9 | O=C(CN1C(=O)COc2ccccc21)NCCN1CCc2ccccc2C1 |  | inactive: 1.31%
10 | Cc1cc(OCC(=O)Nc2ccc(S(=O)(=O)N3CCN(C)CC3)cc2)ccc1Br | inconclusive [activator, single point] | 
11 | CC(=O)CCC(=O)NC1CCCc2c1cnn2-c1ccc(C(C)(C)C)cc1 (stereo not given) | inconclusive [activator, partial curve, poor fit] | 
12 | Cc1nc(SCC(=O)NCCc2ccccc2)c2oc3ccccc3c2n1 |  | inactive: 2.99%
13 | O=C(N/N=C\c1cc2c(cc1Cl)OCO2)c1ccc(Br)s1 | active: 5.8 µM | 
14 | O=C(CSc1nnc(CNC(=O)c2cccs2)o1)NCCc1ccccc1 | inconclusive [activator, single point] | 
15 | Cc1cccc(NC(=S)NNC(=O)c2csc3c2CCCC3)c1 | inconclusive [activator, single point] | 
16 | CCOc1ccc2nc(SCC(=O)N3c4ccccc4Sc4ccccc43)c(C#N)cc2c1 | inconclusive [activator, full curve, poor fit] | 
17 | COCCCn1c(C2CCCCC2)nc2oc3cc(OC)ccc3c(=O)c2c1=O |  | inactive: 11.5%
18 | O=S(=O)(c1cnc(Cl)c(Br)c1)N1CCCCCC1 | inconclusive [activator, single point] | 
19 | CC(=O)Nc1cccn(Cc2c(Cl)cccc2Cl)c1=O | inconclusive [activator, partial curve, poor fit] | 
20 | CNC(=S)N(CCc1c(C)[nH]c2ccc(C)cc12)Cc1ccco1 | inconclusive [activator, single point] | 
21 | CCc1cc2ccccc2nc1SCC(=O)NC1CCCC1 | inconclusive [activator, single point] | 
22 | Cc1cc(C)c(C(=O)NC2CCCc3c2cnn3-c2cccc(C)c2C)o1 (stereo not given) | inconclusive [activator, single point] | 
23 | Cc1ccc(-n2c(-c3cccc(C)c3)n[nH]c2=S)cc1 | active: 20.6 µM | 
24 | COC(=O)[C@H](CC(C)C)NC(=O)c1cc2c(cn1)[nH]c1ccccc12 | inconclusive [activator, single point] | 

Row | Compound | Potency | activity, positive = re-replication
25 | CC(=O)Nc1nc2ccccc2n1CCOc1ccccc1 | inconclusive [activator, partial curve, poor fit] | 
26 | O=C(c1cccc2cccc(O)c12)N1CCCCC1 |  | inactive: -6.63%
27 | Cc1cc2c(cc(C(=O)OCC(=O)NCc3cccs3)n2C(C)C)o1 | active: 2.91 µM | 
28 | O=C1CC2(CCN(C(=O)c3ccc(F)c(F)c3)CC2)Oc2ccccc21 | inconclusive [activator, full curve, poor fit] | 
29 | Cc1ccc(C)n1-c1cccc(C(=O)Nc2ccccc2)c1 |  | inactive: 4.1%
30 | COc1ccc(Cl)cc1NC(=S)N1CCC(c2ccc(C)cc2)C1 (stereo not given) | inconclusive [activator, partial curve, poor fit] | 
31 | O=C(NN=Cc1ccc2c(c1)OCO2)NN=Cc1ccc2c(c1)OCO2 | inconclusive [activator, single point] | 
32 | CCN1CCN(c2ccc(S(=O)(=O)N3CCCCC3)cc2NC(=O)/C=C/c2ccc(Cl)cc2)CC1 | inconclusive [activator, partial curve, poor fit] | 
33 | CCCC(C(=O)NC1CCCC1)N(C(=O)c1snc(C(N)=O)c1N)c1ccc(OCC)cc1 (stereo not given) | inconclusive [activator, partial curve, poor fit] | 
34 | COc1cc(S(=O)(=O)N2CCOCC2)cc(C(=O)OCC(=O)NCc2ccco2)c1OC | inconclusive [activator, single point] | 
35 | CSc1sc(-c2ccnc(SCCS(C)(=O)=O)n2)c(-c2ccccc2)c1C#N |  | inactive: 15.1%
36 | COC(=O)C1=C(C)N(Cc2ccccc2)C(=O)N[C@H]1c1ccc(Br)cc1 | inconclusive [activator, full curve, poor fit] | 
37 | CC(=O)Oc1cc2c(C(=O)NCCCN3CCOCC3)c(C)oc2c2ccccc12 | inconclusive [activator, single point] | 
38 | Cc1cccc(OCc2nnc(SCc3nc4cc(C(F)(F)F)ccc4c(=O)[nH]3)o2)c1 | active: 5.8 µM | 
39 | O=C(NCC1CCCCC1)c1cccc(S(=O)(=O)N2CCCC2)c1 | inconclusive [activator, single point] | 
40 | CCCCC1C(=O)N(c2ccccc2)N(c2ccccc2)C1=O | inactive | 
41 | Cc1ccc(NC(=O)C(c2ccccc2)N2CCN(C(=O)c3ccco3)CC2)cc1 (stereo not given) |  | inactive: -11.4%
42 | NS(=O)(=O)c1ccc2c(c1)C(=NO)c1cc(S(N)(=O)=O)ccc1-2 |  | inactive: 0.908%
43 | Cc1ccc(CNC(=O)CCNC(=O)N2CCn3c2nc2ccccc23)cc1 |  | inactive: -2.07%
44 | COCCNC(=O)CSCc1c(F)cccc1Cl | inconclusive [activator, single point] | 
45 | O=c1[nH]nc(CNc2ccc(O)cc2)c2ccccc12 | inconclusive [activator, single point] | 
46 | O=C(Nc1ccccc1C(=O)Nc1nnc(C(F)(F)F)s1)c1ccccc1Cl | inconclusive [activator, full curve, poor fit] | 
47 | CC(C)CCNC(=O)c1csc2c1CCCCC2 |  | inactive: 8.26%
48 | S=C(NCc1ccco1)Nc1cccc(Cl)c1Cl |  | inactive: 11.1%

Row | Compound | Potency | activity, positive = re-replication
49 | COc1ccc(CCOC(=O)c2cccc(NC(C)=O)c2)cc1 | inconclusive [activator, single point] | 
50 | Cc1ccc(-n2nc3c(N4CCC(C(=O)NCCc5ccccc5C)CC4)nnc(C)c3c2C)cc1 | active: 23.1 µM | 
51 | CCN(CC)c1ccc(/C=N/NC(=O)c2cnccn2)cc1 | active: 2.31 µM | 
52 | O=C(CSc1c(Cl)cccc1Cl)NC1CCCc2ccccc21 (stereo not given) |  | inactive: 15.5%
53 | Cc1nc2c(sc3nc(N4CCOCC4)c4c(c32)CC(C)(C)OC4)c(-c2ccc(Cl)cc2)c1C(=O)O | active: 0.461 µM | 
54 | Cc1ccc(NC(=O)c2cc(=O)[nH]c3ccc(S(=O)(=O)N4CCOCC4)cc23)nc1 | inconclusive [activator, partial curve, poor fit] | 
55 | CC1(C(=O)NCCCNc2ncc(C(F)(F)F)cc2Cl)C=CCN1C(=O)c1ccccc1 (stereo not given) | inconclusive [activator, single point] | 
56 | CCN1CCN(CC2COc3ccccc3O2)CC1 (stereo not given) |  | inactive: -3.71%
57 | Cc1cc(NC(=O)CSc2nc3cc(Cl)ccc3c(=O)n2Cc2ccco2)no1 | active: 18.4 µM | 
58 | CCOC(=O)c1sc(N2C(=O)C(O)=C(C(=O)c3ccc(C)o3)C2c2ccc(OC)c(OC)c2)nc1C (stereo not given) | inconclusive [activator, partial curve, poor fit] | 
59 | CCOC(=O)N1CCN(C(=O)c2ccccc2-c2ccccc2)CC1 | active: 8.2 µM | 
60 | Cc1cc(/C=N/n2cnnc2)c(C)n1-c1ccc(C(=O)O)cc1 |  | inactive: -4.83%
61 | CCCCc1ccc(NC(=O)Cn2c(=O)c(N3CCCCC3)c(N)n(C)c2=O)cc1 |  | inactive: 0.275%
62 | COc1ccc([C@H]2CC(=O)C=C(c3ccnc4ccc(Cl)cc34)C2)cc1 | inconclusive [activator, single point] | 
63 | N#Cc1cc2c(nc1SCC(=O)O)CCCCC2 |  | inactive: 1.97%
64 | O=C(Cn1cnc2cc([N+](=O)[O-])ccc2c1=O)NCc1ccccc1 |  | inactive: -10.7%
65 | Cc1ccc(CNc2ccc(O)cc2)cc1 | inconclusive [activator, single point] | 
66 | COc1ccc(CCN2CCCn3c2nc2c3c(=O)[nH]c(=O)n2C)cc1OC | inconclusive [activator, single point] | 
67 | COC(=O)C(Cc1ccc(O)cc1)NC(=O)NC12CC3CC(CC(C3)C1)C2 (stereo not given) | inconclusive [activator, single point] | 
68 | CCOC(=O)c1c(C)oc2c1c(C(c1ccncc1)N1CCOCC1)c(O)c1ccccc12 (stereo not given) | inconclusive [activator, single point] | 
69 | CCOC(=O)C1=CN(CC)S(=O)(=O)NC1c1ccc(C(F)(F)F)cc1 (stereo not given) | inconclusive [activator, partial curve, poor fit] | 
70 | CCN1CCCC1Cn1cnc2c([nH]c3cccc(Cl)c32)c1=O (stereo not given) | inconclusive [activator, single point] | 
